# From PMC6919601, “Identification of Plasmodium dipeptidyl aminopeptidase allosteric inhibitors by high throughput screening” (PLoS ONE, 2019)
# The whole screen tested about 110,000 compounds, of which about 230 (0.21%) showed an effect of 50% or more. The list shows a part of the results.
# Molecular target: DPAP1 (Plasmodium falciparum, UniProt Q8IIJ9)
# Assay: primary screen, percent inhibition; read by cleavage of a fluorogenic dipeptide substrate; higher = more effect of the substance
# Set-up: species or system P. falciparum D10 trophozoite lysates; single well
# 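Also: 30 min substrate incubation versus DMSO and 10 µM JCP410 controls.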
# Chain of DPAP1 (Q8IIJ9 whole entry, looked up): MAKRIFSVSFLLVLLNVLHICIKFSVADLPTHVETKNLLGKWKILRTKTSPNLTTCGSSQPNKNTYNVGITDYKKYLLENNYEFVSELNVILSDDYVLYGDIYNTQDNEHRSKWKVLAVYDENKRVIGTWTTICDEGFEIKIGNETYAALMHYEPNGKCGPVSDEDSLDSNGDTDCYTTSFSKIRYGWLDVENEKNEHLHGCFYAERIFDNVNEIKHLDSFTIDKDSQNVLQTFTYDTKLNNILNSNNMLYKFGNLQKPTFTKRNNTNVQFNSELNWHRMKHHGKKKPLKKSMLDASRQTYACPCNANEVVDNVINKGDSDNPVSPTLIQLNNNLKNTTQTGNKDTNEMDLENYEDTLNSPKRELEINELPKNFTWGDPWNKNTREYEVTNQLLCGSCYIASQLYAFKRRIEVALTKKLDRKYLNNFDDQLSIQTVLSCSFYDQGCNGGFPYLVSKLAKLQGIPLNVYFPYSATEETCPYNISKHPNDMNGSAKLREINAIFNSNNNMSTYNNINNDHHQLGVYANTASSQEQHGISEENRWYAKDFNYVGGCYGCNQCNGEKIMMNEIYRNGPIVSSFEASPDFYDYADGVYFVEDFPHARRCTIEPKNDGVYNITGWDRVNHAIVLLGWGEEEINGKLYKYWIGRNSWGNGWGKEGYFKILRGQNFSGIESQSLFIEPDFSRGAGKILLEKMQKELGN
row,Compound,% Inhibition @ 10 uM
1,COc1ccc(-c2noc(CN(C(=O)c3ccc(C)c(C)c3)C(C)C)n2)cc1,-1.84%
2,CC(=O)C1=C(C)Nc2nnnn2C1c1ccc(Cl)cc1 (stereo not shown),0.0842%
3,O=C(NCCCN1CCOCC1)C1CC(c2cccc(Br)c2)=NO1 (stereo not shown),0.221%
4,C=CCNc1oc(-c2ccccc2)nc1C#N,2.17%
5,CCOCC(=O)Nc1cc(C)on1,-7.38%
6,Cc1ccc2nc3c(cc(C(N)=O)c(=N)n3CCc3ccccc3)c(=O)n2c1,8.18%
7,CCCOc1ccc(C2C3=C(CCCC3=O)OC3=C2C(=O)CCC3)cc1,5.94%
8,CN1CCN(Cc2cccc(F)c2)CC1,-0.192%
9,CC(C)(C)c1ccc(OCCCC(=O)NC2CCCCC2)cc1,-11%
10,O=C(Nc1cccc(C(=O)Nc2cccc(Cl)c2)c1)c1ccc(F)cc1,4.31%
11,COc1ccc(CN(C)CCc2ccccn2)cc1OCc1ccccc1,-3.41%
12,COc1cccc(CNc2nc3ccccc3n2C(C)C)c1O,-3.96%
13,COc1ccc(Nc2nc(N3CCCCC3)nc(N3CCCCC3)n2)c(OC)c1,3%
14,C=CCSc1nc(=O)c(CC)c(O)n1-c1ccccc1,-1.62%
15,CC(C)(C)c1ccc(C(=O)Nc2nnc(CCc3ccccc3)s2)cc1,-2.6%
16,Cc1ccc(S(=O)(=O)NC2=NCN(CCOC(=O)c3ccccc3)CN2)cc1,2.94%
17,N#C/C(=C/c1cccc(F)c1)c1nc(-c2ccc(Cl)cc2)cs1,3.53%
18,FC(F)(F)c1cccc(N2CCN(Cc3ccc4c(c3)OCCO4)CC2)c1,-5.65%
19,CCOc1ccc(C(=O)C2=C(O)C(=O)N(CCN(CC)CC)C2c2ccc(C)cc2)c(C)c1 (stereo not shown),-0.178%
20,O=C(c1ccc(Br)o1)N(Cc1ccccc1)CC1CCC1,-1.44%
21,O=C(O)c1c(CNCc2cccnc2)c2ccccc2n1Cc1ccccc1F,1.93%
22,Cc1cc(C)c(C(=O)NCC(=O)c2ccccc2)c(C)c1,5.03%
23,CCOc1ccc(S(=O)(=O)Nc2ccc(S(=O)(=O)Nc3ccc(C)cc3)cc2)cc1,13.3%

row,Compound,% Inhibition @ 10 uM
1,CCOC(=O)N1CCN(Cc2cccc(Br)c2)CC1,1.08%
2,COc1ccc(C(=O)Nc2c(F)cccc2F)cc1OC,8.82%
3,Cc1ccc2nc(O)c3cc(C(=O)N4CCN(Cc5ccccc5)CC4)sc3c2c1,-1.66%
4,Cc1ccc(C2=NN(CCC(=O)NCCC(C)C)C(=O)CC2)cc1,-3.58%
5,O=C(NCCN1CCOCC1)c1nc(-c2cccnc2)no1,5.56%
6,CS(=O)(=O)/N=C/N[C@@H](CC1CCCCC1)C(=O)NCC#N,-6.56%
7,Cc1cc(C(=O)NCc2ccc(-n3cccc3)cc2)c2ccccc2n1,-3.75%
8,OCC1CCCN(Cc2ccc(F)c(Br)c2)C1 (stereo not shown),-6.35%
9,O=C(/C=C/c1ccccc1Cl)c1ccccn1,0.526%
10,Cn1ncc2c(NCc3ccccc3Cl)ncnc21,0.0904%
11,Cc1cccc(-n2cc(-c3ccccc3)c3c(N4CCC5(CC4)OCCO5)ncnc32)c1,-0.438%
12,N#Cc1cccc(NC(=O)Cc2ccccc2)c1,-0.473%
13,Cc1ccc2nc3c(O)n(CC(=O)NC4CCCCC4)ncc-3c2c1,1.74%
14,O=C(N1CCCC1)C(O)(c1ccccc1)c1ccccc1,-0.687%
15,CC(O)CCC(=O)NCCNC(=O)CCC(C)O (stereo not shown),-5.51%
16,COc1ccc(CN2CCN(Cc3ccc(SC)cc3)CC2)c(OC)c1OC,2.45%
17,COc1ccc(-c2nnc(NC(=O)c3cccc(C)c3)s2)cc1,-1.25%
18,CCN(CC)C(=S)NC(=O)/C=C/c1ccco1,1.9%
19,Cc1ccc(-c2noc(CNC(=O)c3ccco3)n2)cc1,2.14%
20,CN1CCN(CCNC(=O)c2ccc(-n3cnc4cccnc43)cc2)CC1,-3.84%
21,Cc1c(C(=O)NCc2ccccn2)oc2ccc(S(=O)(=O)N3CCC4(CC3)OCCO4)cc12,-0.972%
22,COc1ccc(NC(=O)C(=O)NCCCO)c(OC)c1,0.565%
23,CC1=C(C(=O)N2CCC(Cc3ccccc3)CC2)C2(CCCCC2)OC1=O,-0.138%

row,Compound,% Inhibition @ 10 uM
1,C#CCN1C(=O)S/C(=C\c2ccc(OCC(=O)O)cc2)C1=O,2.48%
2,CCCOc1ccc(C(=O)Nc2ccccc2C(=O)OC)cc1,3.29%
3,CS(=O)(=O)N(CC(=O)NC1CCCC1)c1cccc(Cl)c1,-0.173%
4,CC1=C(C(=O)c2ccccc2)C(NC(=O)c2cccnc2)(C(F)(F)F)C(=O)N1CCc1ccccc1 (stereo not shown),-2.63%
5,COc1cccc(N2C(=O)CC(N3CCN(c4ccccn4)CC3)C2=O)c1 (stereo not shown),-3.9%
6,O=C(O)C1C2C=CC(C3CC23)C1C(=O)Nc1ccccc1 (stereo not shown),-7.68%
7,CN1CCC(N2CCN(c3ccccc3Cl)CC2)CC1,1.57%
8,CCOC(=O)N1CCC(N[C@H]2CC[C@H](O)CC2)CC1,-7.35%
9,CCc1c(C)nc2c(-c3ccccc3)cnn2c1O,3.16%
10,CCOC(=O)c1c(C)[nH]c(C)c1S(=O)(=O)NCCC1=CCCCC1,-5.36%
11,CCCCCn1c(SC/C=C(/C)Cl)nc2c1c(=O)[nH]c(=O)n2C,2.38%
12,Cc1ccc(C2OC(=O)c3ccccc32)cc1 (stereo not shown),18.3%
13,Cc1nnc(N2CCCC(C(=O)NCCCOC(C)C)C2)c2nn(-c3ccc(Cl)cc3)c(C)c12 (stereo not shown),12.1%
14,COc1ccc(NC(=O)Cc2ccccc2)cc1OC,0.247%
15,Cc1cc(C)c2c(n1)SCC(=O)N2CC(=O)NCCC1=CCCCC1,-4.15%
16,C=CCNC(=O)c1cc(-c2ccc(OC)cc2)on1,0.723%
17,Cc1ccccc1Cn1cc(CCC(=O)NC2CC2)c2ccccc21,-4.65%
18,COc1ccc2cc3cc(C(=O)NCc4ccc(F)cc4Cl)oc3nc2c1,-1.54%
19,COC(=O)c1cc2ccsc2n1Cc1nc(-c2ccc(Cl)cc2)oc1C,-2.34%
20,COc1ccc(OC)c(CCNC2=NS(=O)(=O)C(c3ccc(C)cc3)=C2C)c1,0.623%
21,CC1=C(C(N)=O)C(c2ccc(OCc3ccccc3)cc2)n2nc(CCCO)nc2N1 (stereo not shown),1.96%
